Measurements as given in patent publication US7005419 (US Dept. of Health and Human Services, dated 2006).

Biological target: T1, Cdc2 (human, UniProt P06493)
T1 construct: Endogenous cellular protein; also called cellular Cdc2; Cdc2 polypeptide
Assay: GST pull-down from RKO cell lysate, anti-Cdc2 immunoblot

Cdc2, sequence (P06493 whole entry): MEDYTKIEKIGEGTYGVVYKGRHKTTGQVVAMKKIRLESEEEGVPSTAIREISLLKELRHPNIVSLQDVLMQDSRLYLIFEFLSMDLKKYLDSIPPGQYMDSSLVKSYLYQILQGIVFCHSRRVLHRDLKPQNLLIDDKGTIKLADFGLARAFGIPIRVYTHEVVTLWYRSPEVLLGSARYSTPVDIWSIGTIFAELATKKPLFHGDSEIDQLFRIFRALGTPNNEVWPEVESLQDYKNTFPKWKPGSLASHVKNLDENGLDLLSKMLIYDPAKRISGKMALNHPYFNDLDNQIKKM

- binding result: no binding (tested: 100 ng)
B1: GST alone (other)
chain: not shown
notes: Negative control, linked to Sepharose beads
